Assay results as given in patent US20200223933A1 (APTEVO RESERCH AND DEVELOPMENT, published 2020).

Columns and labels:
human CD137 on cells = biological target: T1, human CD137 on cells (human, UniProt Q07011 24-255); experiment: flow cytometry, CD8 T cells gated from CD3-stimulated human PBMC, exp 1, n=3 donors
T1 construct: On CHO-K1 transfectants, Jurkat/CD137 reporter cells and CD3-stimulated primary human T cells; also called human 4-1BB; TNFRSF9
Experimental: FACS staining and analysis of CD8 T cells: Following 48 h of incubation with or without CD3, human and cynomolgus PBMC were harvested, pooled, recounted and diluted in FACS buffer (PBS +0.5% BSA, 0.05% NaN₃) to a concentration of 5×10⁶ cells/mL. 50 μL (0.25×10⁶ cells) of cell solution was added to a 96-well FACS staining plate (Falcon #351190). Following 10 min of Fc-blocking in RT using Beriglobin (hIgG, 200 μg/mL), cells were washed in FACS buffer and then incubated for 1 h in 4° C. with 100 μL of the biotinylated ALG.APV-210 or negative control. The antibodies were added in a serial dilution starting either at 5 μg/mL titrating down in a 12 step 1/3 dilution down to 0.0003 μg/mL (exp 1) or 1 μg/mL titrating down in a 12 step 1/2 dilution down to 0.0005 μg/mL (exp 2). […] Cells were analysed for ALG.APV-210 binding using flow cytometry by gating on viable, single cells expressing CD3 and CD8. MFI values (FMO subtracted) from 2 independent experiments as well as normalized pooled data from 2 experiments and EC₅₀-values were determined and plotted using GraphPad Prism 7, non-linear regression log (agonist) vs. normalized response—variable slope, n=6 donors/group.

[1] = biological target: T2, cynomolgus CD137 on cells (cynomolgus macaque, UniProt A9YYE7 24-254); experiment: flow cytometry, CD8 T cells gated from CD3-stimulated cynomolgus PBMC, exp 1, n=3 donors
T2 construct: whole, on cells; also called cynomolgus macaque CD137; cynomolgus 4-1BB
Experimental: Isolation and stimulation of cynomolgus PBMC: Cynomolgus PBMC were isolated from 20 mL of cynomolgus monkey blood from 3 different donors, obtained from Silabe, France by density gradient centrifugation using Lympholyte-mammal (Cedarlane labs) according to manufacturer's instructions. Non-tissue treated 96 well plates were pre-coated overnight at 4° C. with 3 μg/mL α-monkey CD3, clone FN-18 (Invitrogen #APS0301). The cynomolgus PBMC were then stimulated identically as the human PBMC described above
FACS staining and analysis of CD8 T cells: Following 48 h of incubation with or without CD3, human and cynomolgus PBMC were harvested, pooled, recounted and diluted in FACS buffer (PBS +0.5% BSA, 0.05% NaN₃) to a concentration of 5×10⁶ cells/mL. 50 μL (0.25×10⁶ cells) of cell solution was added to a 96-well FACS staining plate (Falcon #351190). […] Cells were analysed for ALG.APV-210 binding using flow cytometry by gating on viable, single cells expressing CD3 and CD8. MFI values (FMO subtracted) from 2 independent experiments as well as normalized pooled data from 2 experiments and EC₅₀-values were determined and plotted using GraphPad Prism 7, non-linear regression log (agonist) vs. normalized response—variable slope, n=6 donors/group.

T2 sequence (A9YYE7 entry or part of it): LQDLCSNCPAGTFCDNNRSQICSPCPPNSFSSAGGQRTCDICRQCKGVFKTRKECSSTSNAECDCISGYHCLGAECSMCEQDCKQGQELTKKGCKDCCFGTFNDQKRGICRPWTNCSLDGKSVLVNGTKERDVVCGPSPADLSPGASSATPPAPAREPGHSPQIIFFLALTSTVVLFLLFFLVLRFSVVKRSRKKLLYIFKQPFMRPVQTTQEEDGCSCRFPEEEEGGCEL
human CD137 on cells, sequence (Q07011 24-255 limits assumed): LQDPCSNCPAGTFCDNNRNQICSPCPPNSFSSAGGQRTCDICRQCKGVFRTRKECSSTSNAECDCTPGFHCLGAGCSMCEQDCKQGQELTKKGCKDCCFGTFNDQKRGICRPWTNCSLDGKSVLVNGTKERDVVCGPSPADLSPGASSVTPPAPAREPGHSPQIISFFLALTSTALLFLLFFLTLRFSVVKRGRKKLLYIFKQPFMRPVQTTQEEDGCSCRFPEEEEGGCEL

B1: biotinylated ANC017 (other)
chain: [letters of about 100 residues left out]GSGSYFDLWGQGTLVTVSSGGGGSGGGGSGGGGSGGGGSDIQMTQSPSFLSASVGDRVTITCRASQSISSYLNWYQQKPGKAPKLLIYAASSLQSGVPSRFSGSGSGTDFTLTISSLQPEDFATYYCQQYSGYPYTFGQGTKLEIKSSEPKSSDKTHTCPPCPAPEAAGAPSVFLFPPKPKDTLMISRTPEVTCVVVDVSHEDPEVKFNWYVDGVEVHNAKTKPREEQYNSTYRVVSVLTVLHQDWLNGKEYKCAVSNKALPAPIEKTISKAKGQPREPQVYTLPPSRDELTKNQVSLTCLVKGFYPSDIAVEWESNGQPENNYKTTPPVLDSDGSFFLYSKLTVDKSRWQQGNVFSCSVMHEALHNHYTQKSLSLSPGSGGGGSGGGGSGGGGSPS[letters of about 100 residues left out]GSGSYFDLWGQGTLVTVSSGGGGSGGGGSGGGGSGGGGSDIQMTQSPSFLSASVGDRVTITCRASQSISSYLNWYQQKPGKAPKLLIYAASSLQSGVPSRFSGSGSGTDFTLTISSLQPEDFATYYCQQYSGYPYTFGQGTKLEIKRS
modifications: biotinylated (sites not given)
notes: Antibody in the ADAPTIR format with the same framework as ALG.APV-210 (germline CDRs), used as negative control and also biotinylated; The name is printed as ANC017, ANC107 and ACN017; also called ANC107; ACN017
B1: no binding (tested: about 30 nM) (human CD137 on cells); no binding (tested: about 30 nM) [1].
